Test results published in paper PMC11995724, “Antibiotic target discovery by integrated phenotypic and activity-based profiling of electrophilic fragments” (Cell chemical biology, 2025).
The whole screen tested about 3,200 compounds, of which about 75 (2%) showed an effect of 50% or more. Some of the results follow.

Each compound was assayed on T1, S. aureus MSSA476. Conditions: relative growth, OD600, TSB; 25 µM; inhibitor.
T1 construct: MSSA476
Set-up: species or system S. aureus MSSA476 (TSB) or V. cholerae SAD30 (LB); 384-well bacterial growth screen at 25 uM, OD600 relative to DMSO control
For `Cc1ccc(C2CS(=O)(=O)CCN2C(=O)C(C)Cl)o1` (stereo not drawn) [6-D19, 4-(2-chloropropanoyl)-3-(5-methylfuran-2-yl)-1lambda6-thiomorpholine-1,1-dione], the “% of control remaining” value was 102.439%.
In the case of `O=C(CCl)c1cnc(N2CCCCC2)s1` [10-L17, 2-chloro-1-[2-(piperidin-1-yl)-1,3-thiazol-5-yl]ethan-1-one], the “% of control remaining” value is reported as 99.375%.
For `Cc1nnnn1-c1ccc(F)c(NC(=O)CCl)c1` [6-E13, 2-chloro-N-[2-fluoro-5-(5-methyl-1H-1,2,3,4-tetrazol-1-yl)phenyl]acetamide], the “% of control remaining” value was 106.878%.
For `CC1(C)C(=O)Nc2ccc(C(=O)CCl)cc21` [10-N21, 5-(2-chloroacetyl)-3,3-dimethyl-2,3-dihydro-1H-indol-2-one], the “% of control remaining” value was 40.3125%.
In the case of `C=CC(=O)NC(CO)c1nc(C)no1` (stereo not drawn) [1-C05, N-[2-hydroxy-1-(3-methyl-1,2,4-oxadiazol-5-yl)ethyl]prop-2-enamide], the “% of control remaining” value is reported as 95.6484%.
`CC(=O)Nc1ccc(C=C(C#N)C(=O)Nc2c(C)cc(C)cc2C)cc1` [8-M13, 2-cyano-3-(4-acetamidophenyl)-N-(2,4,6-trimethylphenyl)prop-2-enamide] was tested, and the “% of control remaining” value was 112.863%.
`CC(Cl)C(=O)Nc1cccc(CSc2ccccn2)c1` (stereo not drawn) [5-B18, 2-chloro-N-{3-[(pyridin-2-ylsulfanyl)methyl]phenyl}propanamide] was tested, and the “% of control remaining” value was 111.111%.
For `N#CC(=CN1CCN(c2ccccc2)CC1)C(=O)Nc1ccc(F)cc1` [8-C20, 2-cyano-N-(4-fluorophenyl)-3-(4-phenylpiperazin-1-yl)prop-2-enamide], the “% of control remaining” value was 86.639%.
For `C=CC(=O)N(C)C1CCN(c2cnccn2)CC1` [1-B12, N-methyl-N-[1-(pyrazin-2-yl)piperidin-4-yl]prop-2-enamide], the “% of control remaining” value was 112.176%.
In the case of `N#CC(=Cc1c2ccccc2c(Cl)c2ccccc12)C(N)=O` [8-N12, 3-(10-chloroanthracen-9-yl)-2-cyanoprop-2-enamide], the “% of control remaining” value is reported as 127.137%.
In the case of `CC(c1cnn(C)c1)N(C)C(=O)CCl` (stereo not drawn) [5-M04, 2-chloro-N-methyl-N-[1-(1-methyl-1H-pyrazol-4-yl)ethyl]acetamide], the “% of control remaining” value is reported as 96.1749%.
With `CC(Cl)C(=O)N1CCC(c2nccn2C)C1` (stereo not drawn) [6-F15, 2-chloro-1-[3-(1-methyl-1H-imidazol-2-yl)pyrrolidin-1-yl]propan-1-one] the “% of control remaining” value was 88.0976%.
With `O=C(CCl)Nc1cccc(S(=O)(=O)N=C2CCCCCN2)c1` [4-D08, N-{3-[(azepan-2-ylidene)sulfamoyl]phenyl}-2-chloroacetamide] the “% of control remaining” value was 80.4192%.
With `CC(Cl)C(=O)N(C)C1CCN(C(=O)c2ccccc2)CC1` (stereo not drawn) [6-B18, N-(1-benzoylpiperidin-4-yl)-2-chloro-N-methylpropanamide] the “% of control remaining” value was 99.0244%.
In the case of `CNC(=O)C(C#N)=Cc1ccc(F)cc1` [9-B14, 2-cyano-3-(4-fluorophenyl)-N-methylprop-2-enamide], the “% of control remaining” value is reported as 86.2921%.
With `Cc1cc(NC(=O)CN(C)C(=O)C(C)Cl)no1` (stereo not drawn) [7-M19, 2-chloro-N-methyl-N-{[(5-methyl-1,2-oxazol-3-yl)carbamoyl]methyl}propanamide] the “% of control remaining” value was 91.6797%.
For `Cn1c(-c2ccccc2)c(C(=O)CCl)c2ccccc21` [10-N04, 2-chloro-1-(1-methyl-2-phenyl-1H-indol-3-yl)ethan-1-one], the “% of control remaining” value was 49.0625%.
For `N#Cc1ccc(OC2CN(C(=O)CCl)C2)cc1` [5-K07, 4-{[1-(2-chloroacetyl)azetidin-3-yl]oxy}benzonitrile], the “% of control remaining” value was 119.126%.
`CC(=O)NCc1ccc(C(=O)C(C)Cl)s1` (stereo not drawn) [10-M04, N-{[5-(2-chloropropanoyl)thiophen-2-yl]methyl}acetamide] was tested, and the “% of control remaining” value was 110%.
With `CC(Cl)C(=O)NC1CCN(S(=O)(=O)c2cnn(C)c2)CC1` (stereo not drawn) [7-O05, 2-chloro-N-{1-[(1-methyl-1H-pyrazol-4-yl)sulfonyl]piperidin-4-yl}propanamide] the “% of control remaining” value was 114.286%.
`COc1cc(C=C(C#N)C(=O)Nc2nccs2)cc(OC)c1O` [8-M19, 2-cyano-3-(4-hydroxy-3,5-dimethoxyphenyl)-N-(1,3-thiazol-2-yl)prop-2-enamide] was tested, and the “% of control remaining” value was 80%.
For `C=CC(=O)NCc1ccnc(-n2cncn2)c1` [3-B18, N-{[2-(1H-1,2,4-triazol-1-yl)pyridin-4-yl]methyl}prop-2-enamide], the “% of control remaining” value was 139.66%.
For `C=CC(=O)N[C@H](C)c1cnnn1C` [3-B11, N-[(1R)-1-(1-methyl-1H-1,2,3-triazol-5-yl)ethyl]prop-2-enamide], the “% of control remaining” value was 140.009%.
In the case of `CC(C)NC(=O)C(C#N)=Cc1cccc2ccccc12` [8-P06, 2-cyano-3-(naphthalen-1-yl)-N-(propan-2-yl)prop-2-enamide], the “% of control remaining” value is reported as 127.801%.
`C=CC(=O)NC1(c2ncon2)CCOCC1` [3-K22, N-[4-(1,2,4-oxadiazol-3-yl)oxan-4-yl]prop-2-enamide] was tested, and the “% of control remaining” value was 88.8115%.
With `N#CC(=Cc1c2ccccc2cc2ccccc12)C(=O)NC1CCCCC1` [8-D14, 3-(anthracen-9-yl)-2-cyano-N-cyclohexylprop-2-enamide] the “% of control remaining” value was 122.822%.
In the case of `O=C1CCc2cc(C(=O)CCl)ccc2N1` [10-M03, 6-(2-chloroacetyl)-1,2,3,4-tetrahydroquinolin-2-one], the “% of control remaining” value is reported as 83.125%.
`C=CC(=O)N1CCC(NC(=O)c2oc(C)cc2C)CC1` [2-K17, 3,5-dimethyl-N-[1-(prop-2-enoyl)piperidin-4-yl]furan-2-carboxamide] was tested, and the “% of control remaining” value was 106.179%.
With `CC(Cl)C(=O)N1CCOCC1c1ncnn1Cc1ccccc1` (stereo not drawn) [7-C08, 1-[3-(1-benzyl-1H-1,2,4-triazol-5-yl)morpholin-4-yl]-2-chloropropan-1-one] the “% of control remaining” value was 96.3893%.
In the case of `O=C(CCl)NCc1cccc(NC(=O)C2CC2)c1` [4-D22, N-{3-[(2-chloroacetamido)methyl]phenyl}cyclopropanecarboxamide], the “% of control remaining” value is reported as 114.721%.
